Patent US20200024338A1 (Stanford University, published 2020)

Molecular target: T1, human CD25 on transduced cells (human, UniProt P01589 22-272)
T1 sequence (looked up): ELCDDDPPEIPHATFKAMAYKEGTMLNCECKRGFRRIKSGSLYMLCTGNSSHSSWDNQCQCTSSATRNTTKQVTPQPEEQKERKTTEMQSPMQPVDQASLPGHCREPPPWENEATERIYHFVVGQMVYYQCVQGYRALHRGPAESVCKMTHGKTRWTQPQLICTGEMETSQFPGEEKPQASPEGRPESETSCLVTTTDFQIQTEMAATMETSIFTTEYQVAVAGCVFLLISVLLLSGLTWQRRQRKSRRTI
Assay: cell-based or functional assay

Binder | increase of Wnt3a reporter activity (luciferase, HEK 293 STF cells transduced with CD25) | organoid growth (alamarBlue fluorescence) of CD25+ human colon organoids relative to IL-2 control
R5 scFv-human IL2 (other, scFv-cytokine fusion expressed in insect cells with baculovirus; also called R5-IL2; R5-1L2) ASQITLKESGPTLVKPTQTLTLTCSFSGFSLSFSGVGVAWIRQPPGKALEWLALIYWDDDKRYSPSLKSRLTITKDTSKNQVVLTMTNMDPLDTATYYCAHREWKAFGAFDIWGQGTMVTVSSGILGSGGGGSGGGGSGGGGSQPVLTQSPSASGTPGQRVTISCSGSSSNIGSNTVNWYQQLPGTAPKLLIYSNNQRPSGVPDRFSGSKSVTSASLAISGLQSEDEAEYYCATWDDSLNGAVFGGGTQLTVLSGILGSGSGSGSGS[gap - about 150 residues]AAAHHHHHHHH | 9.5 fold | 7.3 fold
Z6 scFv-human IL2 (other, scFv-cytokine fusion expressed in insect cells with baculovirus; also called Z6-IL2; Z6-1L2) ASQVQLVQSGAEVKNPGASVKVSCKASGYAFTSYGISWVRQAPGQGLEWMGWISAYTRNTNYAQKFQGRVTLTTDTSTSTAYMELRSLRSDDTAIYYCARDARYSLGVGAFDVWGQGTMVTVSSGILGSGGGGSGGGGSGGGGSETTLTQSPAFMSATPGDKVSISCKASRDIDDDLNWYQQKPGEAAISIIQEATTLVPGIPPRFSGSGYGTDFTLTINNIESEDAAYYFCLQHDDVPYTFGQGTKLEIKSGILGSGSGSGSGS[gap - about 150 residues]AAAHHHHHHH | 41 fold | 9.4 fold
